From the supplement of paper PMC11417369
The other results are listed elsewhere or left out.

Test system: PF3D7_0420300 AP2 domain 1 (GST-tagged)
Test: gcPBM binding intensity (ln(normalized median fluorescence intensity)); higher = stronger DNA binding
Summary of the method: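 Each value is the highest Masliner-normalised natural-log median intensity across replicate spots of either orientation of a probe. The probes were primer-extended double-stranded 36-bp intergenic genomic sequences on an Agilent 4 × 180k array, alongside negative controls, exposed for 1 h to GST-tagged P. falciparum DNA-binding domains expressed in E. coli. Bound protein was picked up with Alexa488 anti-GST antibody and scanned at 488 nm.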

Sequence	gcPBM binding intensity (ln)
TTATTTCTAATTCGTTGTACAATATATAATATATAT [XGTACX_site5861]	9.23
TTGATAGACACATGCACACATGCAATACTTTATTCA [CACACA_site3000]	9.34
TAGGTGTTAAAAAATACACACACAAAAAAAAAAAAA [CACACA_site7927]	9.6
ACATTTTTGGTTTTAGTGCAATATGAATTATTTTAT	9.35
TCTTCCATTTTTATTACACACATAAATATGAAATCG [CACACA_site3471]	9.53
CCTTTAAGCAAAAACACACACACATATATATATATA [CACACA_site348]	9.78
ATTATTTTATATACATGTACATATTATATATAAAAG [XGTACX_site2735]	9.02
TATAAAATAAAAAATATATATATGTATATATATATA [TGCATGCA_negctrl_site163]	8.96
TATAAGTGCTCAACGGTGCATTTATAGAAGTTAAAC	9.16
TTTCTTTTTTAGAGGTGTACACGTAGGCCTCTTGGA [XGTACX_site4760]	8.82
TATTTATACACGCACACACACTTATACATTTATATA [CACACA_site7543]	10.1
TTAGATATTAATATATGTACATATTAATATATTTAC [XGTACX_site7119]	9.04
TATAATTTTTACTGGGTGCACTCGATATTTTAAATA	9.15
TAAATGTAAAACGAAATGCACACTATGGAAAATATA [CACACA_site724]	9.66
AAGACTCTTTGTCCTTGTACATATATTTTTATGTTT [XGTACX_site3711]	9.4
TTTATATAATATGAATGTACTTATATATTTATAGAC [XGTACX_site3261]	9.19
TATTTATTCTCCAACACACACACATATATATATATA [CACACA_site2894]	9.92
AAAATGAATTTAAAATGTACTTTTTCTAAAGAGTAA [XGTACX_site2337]	8.8
TTATAGGTGCTTCGTAGTACATAAAAATAATATATA [XGTACX_site6979]	9.05
AGTTTTATATTTCTGAGTACTTATGAATCTAGCTCG [XGTACX_site4330]	9.15

Sequence	gcPBM binding intensity (ln)
TTTTTTTTTTTTTTTACACACATTTTAATAATTTTA [CACACA_site1492]	9.25
ATTTTTTCTAAAAGTTGTACATTAAAACGTGTTCAC [XGTACX_site4803]	8.91
TTGTAAAAAATTCATACACACGTCTTATTTTTAAGA [CACACA_site8390]	9.13
AGCAAAAATTAAATAAATAAATATATATATATATAT [TGCATGCA_negctrl_site449]	9.12
AATGATGTCATAGGGGGTACACATAAATGTGAATGT [XGTACX_site6745]	9.4
GCAACATTCTAAGACACACACACACCCATATATATA [CACACA_site1053]	10.1
ATATTAATAATATATACACACATAAGTATTGTATAT [CACACA_site4095]	9.41
AATAATATATATATATATATATATAGATATGTATAT [GTGCAC_negctrl_site653]	9.25
GTTTATTCTTTTTATACACACCTTATTTGATTAACA [CACACA_site4567]	9.69
TATACATAGAAACACACACACATATATATATATATA [CACACA_site2248]	9.79
TTACTACTATATTATACACACATATATATATATATA [CACACA_site2621]	9.61
TTCTAATATTTTTGCACACTAAACAATAAATTTCCT [CACACA_site3944]	9.35
TTTATTTATGTAGATACACACCCATGTTATATGGAG [CACACA_site9144]	9.15
TTAAAAGAAAAAATATGTACATATATTATATATATC [XGTACX_site7009]	9.25
TGTGAATAAATAAGCACACATAAACACATATATAAA [CACACA_site6114]	9.72
AATTTTATATATATATGTACATATTTATATGCTTAT [XGTACX_site8180]	9.4
AATATAAGTGTACATACACACTTTACAATATCATAT [CACACA_site5634]	9.43
ACATACATACCCCCACGTACGTACCGAAACACCACC [XGTACX_site1982]	9.84
TTTCTATATCTTTCAACACACAAATTTTTTTTTCCA [CACACA_site108]	9.28
CAAAGAACTTATAGGGTGCTTTACTTATAAGTAAAT [GTGCAC_site9579]	9.12

Sequence	gcPBM binding intensity (ln)
GTGGTTGTAATGGTGGTGCATATTGTATATTATGTT	9.6
ATGTTAACTAAATGTACACACCTATGTTGATGTAAC [CACACA_site5073]	9.52
TATATATATAAAATATGTACATAAAATTATTTATTT [XGTACX_site7666]	9.14
AAAGTTTAAATGAGAAGTACAAATTTTTGTTTTTAT [XGTACX_site1844]	9.17
ATATAAAGTATGTTAGTGCACTTTTTTTTTTTTTTT [GTGCAC_site9419]	9.24
GTAATACACATATAATGTACTCATAAATATATTTAT [XGTACX_site4041]	9.29
TCATAGGAGAACTTTTGTACAGATTTTTCTTTTTTT [XGTACX_site2853]	9.24
TGTTGTATTTTTACAACACACATTTAATCCATTTAA [CACACA_site1507]	9.15
CTTATATATTGGGATAGTACTTTTAACTAAATAGAA [XGTACX_site5900]	9.01
ACTTTACGAATTAAGAGTACTTATTTAAGGAACACT [XGTACX_site7919]	9.05
TTTTTTTGCTCTTTTTATATATATATATATATATAT [GTGCAC_negctrl_site70]	9.34
TTTTTATTGAGATACTTATATAATTTTATGAATAAA [XGTACX_negctrl_site311]	8.66
TTTGAAAAGTTGAAATGTACACATTTACACATATTT [XGTACX_site1641]	9.16
ATAATTATTCTTATGGTGCACTGAATATACATGTTG [GTGCAC_site9760]	9.34
CAAAAATATATTTTTTGTACACAAAAAAAAAATAAA [XGTACX_site5229]	8.97
ATAGCACATTTTTAAGCACACGTTTATTATATATAT [CACACA_site6084]	9.59
AAAACTATTAAATGTAGTACATAATTATTGAAATAA [XGTACX_site8716]	9.08
AAATACATATCATGTAGTACATATATATGTAGGTTA [XGTACX_site5392]	9.4
